Measured values taken from PubChem BioAssay AID1259400 (National Center for Advancing Translational Sciences (NCATS), 2018).
Where “and” joins values, the source holds several entries; their conditions need not be identical. Identical values can stand only once. The campaign covered roughly 350,000 compounds. About 2,100 (0.6%) were called active. Inconclusive results, whose numbers are uncertain, are shown with a selection of clear calls.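 How the source made its calls: active means activity change of -60% or lower, but not beyond a set lower limit; inconclusive means change between -60% and -40%, or beyond the set limit; inactive means change above -40%.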

biological target: Relaxin receptor 1 (Homo sapiens) (UniProt Q9HBX9); assay: qHTS Assay for Antagonists of the Relaxin Receptor RXFP1; settings: HEK293-RXFP1, relaxin-stimulated cAMP HTRF, 30 min; at 57.5 µM; stronger effect = lower value
On the % scale 0 is the no-effect control and ±100 the full control effect.

UniProt Q9HBX9, sequence (Q9HBX9 whole entry, looked up): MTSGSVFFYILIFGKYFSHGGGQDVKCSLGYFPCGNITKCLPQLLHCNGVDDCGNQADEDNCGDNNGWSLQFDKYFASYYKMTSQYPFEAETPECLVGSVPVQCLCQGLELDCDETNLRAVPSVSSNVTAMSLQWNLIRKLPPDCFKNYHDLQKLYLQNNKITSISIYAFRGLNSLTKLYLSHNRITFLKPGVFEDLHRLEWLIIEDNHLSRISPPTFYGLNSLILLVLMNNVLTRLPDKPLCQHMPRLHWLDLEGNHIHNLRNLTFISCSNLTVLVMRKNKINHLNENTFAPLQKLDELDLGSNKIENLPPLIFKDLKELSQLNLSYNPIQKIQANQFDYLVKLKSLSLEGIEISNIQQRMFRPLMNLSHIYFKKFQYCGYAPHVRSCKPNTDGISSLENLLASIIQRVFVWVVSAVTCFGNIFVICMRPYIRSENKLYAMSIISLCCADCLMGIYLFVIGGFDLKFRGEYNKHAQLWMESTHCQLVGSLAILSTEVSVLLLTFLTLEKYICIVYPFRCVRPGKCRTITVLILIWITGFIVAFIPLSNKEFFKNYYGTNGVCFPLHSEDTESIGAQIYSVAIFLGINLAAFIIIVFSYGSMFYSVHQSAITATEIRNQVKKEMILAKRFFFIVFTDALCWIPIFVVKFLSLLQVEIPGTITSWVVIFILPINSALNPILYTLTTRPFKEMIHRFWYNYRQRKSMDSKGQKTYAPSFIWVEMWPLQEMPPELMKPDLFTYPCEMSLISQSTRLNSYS

Row | SMILES | activity change, negative = inhibition
1 | COc1cc(/C=N/N(C)C)cc(Br)c1O | inconclusive: -46.2%
2 | COc1cc(/C=N/NC(=O)c2ccccn2)ccc1OC(=O)c1ccccc1Br | active: -97.3%
3 | COc1cccc(/C=C/C(=O)c2cccc([N+](=O)[O-])c2)c1OC | inconclusive: -52.9%
4 | COCCn1c(=N)c(S(=O)(=O)c2ccc(Br)cc2)cc2c(=O)n3ccccc3nc21 | inactive: -4.02%
5 | C=CCNC(=O)C(C#N)c1nc2ccccc2nc1N1CCN(Cc2ccccc2)CC1 (stereo not given) | inactive: -5.93%
6 | COc1ccc(S(=O)(=O)c2c(O)c3ccc(C(=O)Nc4ccccc4Cl)cc3[nH]c2=O)cc1 | inconclusive: -42.7%
7 | CC(C)=CC(=O)Nc1nc2ccc([N+](=O)[O-])cc2s1 | inconclusive: -47.8%
8 | CCCc1c(O)nc(SCC(=O)O)[nH]c1=O | inactive: -4.21%
9 | CCOc1ccc(C(=O)CCc2nc3ccccc3s2)cc1 | inconclusive: -41.2%
10 | CCCn1c(CCC(=O)O)ccc1-c1ccccc1 | inconclusive: -53.2%
11 | CCOC(=O)c1ccc(NC(=O)Nc2ccc3c(c2)OCCO3)cc1 | inactive: -29.5%
12 | O=C(CSc1nc2nn(-c3ccccc3)c(=O)c-2c2n1CCCCC2)c1ccc(O)c(O)c1 | inconclusive: -49.9%
13 | Oc1ccc(N=Nc2nc(-c3ccccc3)c(-c3ccccc3)[nH]2)cc1 | inactive: -8.39%
14 | COc1ccc(CN2CCCC(C(=O)N(C)Cc3ccccc3)C2)cc1OC (stereo not given) | inactive: -13.3%
15 | CC(C)(C)NC(=O)c1ccc(COc2ccc(Cl)cc2Cl)o1 | inconclusive: -45.2%
16 | O=C(NCc1ccccc1Br)c1ccc(-n2cnc3cccnc32)cc1 | inconclusive: -42%
17 | CN(C)CCCn1cnc2c(c1=N)C(c1ccccc1)c1ccc3ccccc3c1O2 (stereo not given) | inconclusive: -45.1%
18 | O=C(N/N=C/c1cc([N+](=O)[O-])cc([N+](=O)[O-])c1O)/C(=C\c1cccs1)NC(=O)c1ccccc1 | inconclusive: -49.9%
19 | CC(C)[C@H](NC(=O)c1ccccc1Cl)C(=O)OCC(=O)Nc1ccc(S(=O)(=O)N2CCOCC2)cc1 | inconclusive: -57.9%
20 | CSc1ccccc1NC(=O)CCS(=O)(=O)c1nc(-c2cccs2)cc(C(F)(F)F)n1 | inactive: 0.767%
21 | Cc1ccccc1C(=O)Nc1nnc(S(=O)(=O)N2CCCc3ccccc32)s1 | inconclusive: -42.3%
22 | Cc1ccc(-n2c(=O)c3sccc3n(Cc3cc(=O)n4ccccc4n3)c2=O)cc1 | inactive: 4.58% and inactive: -10.9%
23 | CCCc1oc2ccc(NS(=O)(=O)c3ccc(OC)cc3)cc2c1C(=O)OCC | inconclusive: -55.7%
24 | CCOc1ccc2nc(NC(=O)CSC3=NCCS3)sc2c1 | inconclusive: -58.1%
25 | COc1ccc(CNCC(O)(c2ccccc2)c2ccc(F)cc2)cc1 (stereo not given) | inactive: -34.7%
26 | CCC(Oc1ccc(F)cc1)C(=O)Nc1cc(-c2ccc(C)cc2)no1 (stereo not given) | inconclusive: -49%
27 | CC1(C)Cc2nc3oc4c(NCc5ccccc5)ncnc4c3cc2CO1 | inactive: -8.35%
28 | CC(C)CCn1c(SCc2cccc(F)c2)nc2ccsc2c1=O | active: -76.5%

Row | SMILES | activity change, negative = inhibition
29 | CCCN(C(=O)COC(=O)CNC(=O)c1ccc2ccccc2c1)c1c(N)n(Cc2ccccc2)c(=O)[nH]c1=O | inconclusive: -43.9%
30 | CC/C(=N/Nc1cccc(C)c1)c1cnnc(SC)n1 | inactive: 4.7%
31 | Cc1ccc(-n2ncc(C(=O)NCCCN3CCc4ccccc4C3)c2C2CCN(C(=O)OC(C)(C)C)CC2)c(C)c1 | inconclusive: -50.9%
32 | c1ccc(CC(Nc2ccccn2)c2ccccc2)cc1 (stereo not given) | active: -60.2%
33 | Cc1ccc(C(C(=O)NCC2CCCO2)N(C(=O)c2snc(C(N)=O)c2N)c2ccccc2F)o1 (stereo not given) | inconclusive: -50.2%
34 | Fc1ccc(Nc2nc(N3CCOCC3)nc(N3CCOCC3)n2)cc1Cl | inconclusive: -54.7%
35 | CC(C)(C)c1csc(NNC(=O)c2ccc(Br)cc2)n1 | active: -61.1%
36 | CCOc1ccc(NC(=O)C(=O)NCC(c2cccnc2)N2CCc3ccccc32)cc1 (stereo not given) | active: -64.3%
37 | CC(C)Oc1cccc(C(=O)C2CCCN(Cc3cnc(N4CCOCC4)s3)C2)c1 (stereo not given) | active: -64.6%
38 | COc1ccccc1Nc1nc(NCC2CCCO2)c2ccccc2n1 (stereo not given) | inconclusive: -58.7%
39 | O=C(CSc1cccc2cccnc12)N/N=C/c1ccc(O)cc1 | inactive: -6.49%
40 | S=c1nc(NCc2cccc(Cl)c2)c2ccccc2[nH]1 | inconclusive: -49.6%
41 | Cc1ccc(C(=O)Nc2ccc(N3CCCC3)cc2)cc1 | inconclusive: -46.3%
42 | O=C(CCn1c(=S)[nH]c2cc3c(cc2c1=O)OCO3)NCc1cccc(Cl)c1 | inconclusive: -59.7%
43 | Cc1ccc(N2C(=O)CS/C2=C(\C(Cl)=C(Cl)Cl)[N+](=O)[O-])cc1 | inconclusive: -50.9%
44 | Cc1cc(C)c2nc(N(CCCN(C)C)C(=O)C3=COCCO3)sc2c1 | inconclusive: -42.6%
45 | Cc1cc(Br)ccc1SCC(=O)NCC(c1ccco1)N1CCCCC1 (stereo not given) | inconclusive: -41.1%
46 | OC(CNCC1CCCO1)Cn1c2ccc(Br)cc2c2cc(Br)ccc21 (stereo not given) | inconclusive: -58.1%
47 | CC(/C=C/c1ccc(N(C)C)cc1)=N/N=C1/NC(=O)CC(C(=O)Nc2ccc(Cl)cc2)S1 (stereo not given) | inconclusive: -40.4%
48 | COc1ccc(C2=NS(=O)(=O)N(C)C(C(=O)Nc3ccc(C(C)=O)cc3)=C2)cc1OC | inactive: -22.5%
49 | Cc1cc(-c2nc(-c3ccc(C(C)(C)C)cc3)no2)no1 | inactive: -16.5%
50 | COc1cccc(-c2nc(-c3ccc(Br)o3)no2)c1 | inconclusive: -47.5%
51 | CCOC(=O)C1CCCN(S(=O)(=O)c2cc(-c3onc(C)c3C)ccc2OC)C1 (stereo not given) | inactive: -35.2%
52 | COc1ccc(OC)c2c(C)cc(N3CCN(C(=O)c4ccc(F)cc4)CC3)nc12 | inactive: -0.65%
53 | O=C(Nc1ccccc1)c1cnc(N2CCCCC2)c2ccccc12 | active: -68.3%
54 | Cc1nnc(-c2ccc(Cl)cc2)nc1NCCN(C)C | inconclusive: -46.6%
55 | CCN(CC)S(=O)(=O)c1ccc(NC(=O)Cn2ncc3c([nH]c4ccccc43)c2=O)cc1 | inactive: -6.81%
